Source: US20240317847A1 (Bayer, published 2024)

B1: TPP-16478 (antibody, human IgG1, lambda)
heavy: EVQLLESGGGLVQPGGSLRLSCAASGFTFSSYGMHWVRQAPGKGLEWVSVISYDGSYKYYADSVKGRFTISRDNSKNTLYLQMNSLRAEDTAVYYCAAGVPDYWGQGTLVTVSS[omitted - human IgG1 constant region]
light: QSVLTQPPSASGTPGQRVTISCTGSSSNIGAGYDVHWYQQLPGTAPKLLIYSNNERPSGVPDRFSGSKSGTSASLAISGLRSEDEADYYCAAWDDSLNGPVFGGGTKLTVLGQPKAAPSVTLFPPSSEELQANKATLVCLISDFYPGAVTVAWKADSSPVKAGVETTTPSKQSNNKYAASSYLSLTPEQWKSHRSYSCQVTHEGSTVEKTVAPTECS
notes: hIgG1, Lambda
B2: TPP-29386 (antibody, human IgG1, lambda)
heavy: EVQLLESGGGLVQPGGSLRLSCAASGFTFSSYGMHWVRQAPGKGLEWVAVISYDGSYKYYADSVKGRFTISRDNSKNTLYLQMNSLRAEDTAVYYCAAGVPDYWGQGTLVTVSS[omitted - human IgG1 constant region]
light: QSVLTQPPSASGTPGQRVTISCSGSSSNIGSDYDVHWYQQLPGTAPKLLIYSNEERPSGVPDRFSGSKSGTSASLAISGLRSEDEADYYCSAWDSSLSGPVFGGGTKLTVLGQPKAAPSVTLFPPSSEELQANKATLVCLISDFYPGAVTVAWKADSSPVKAGVETTTPSKQSNNKYAASSYLSLTPEQWKSHRSYSCQVTHEGSTVEKTVAPTECS
notes: hIgG1, Lambda; VL G32D, N54E, A91S, D95S against TPP-27159
B3: TPP-30000 (antibody, human IgG1, lambda)
heavy: QVQLVESGGGVVQPGRSLRLSCAASGFTFSHYDMHWVRQAPGKGLEWVAVISYSGSVKFYADSVKGRFTISRDNSKNTLYLQMNSLRAEDTAVYYCARTPGSHFDYWGQGTLVTVSSASTKGPSVFPLAPSSKSTSGGTAALGCLVKDYFPEPVTVSWNSGALTSGVHTFPAVLQSSGLYSLSSVVTVPSSSLGTQTYICNVNHKPSNTKVDKKVEPKSCDKTHTCPPCPAPPVAGPSVFLFPPKPKDTLMISRTPEVTCVVVGVSHEDPEVKFNWYVDGVEVHNAKTKPREEQYNSTYRVVSVLTVLHQDWLNGKEYKCKVSNKQLPSPIEKTISKAKGQPREPQVYTLPPSRDELTKNQVSLTCLVKGFYPSDIAVEWESNGQPENNYKTTPPVLDSDGSFFLYSKLTVDKSRWQQGNVFSCSVMHEALHNHYTQKSLSLSPGK
light: QSVLTQPPSASGTPGQRVTISCSGSSSNIGSNYVNWYQQLPGTAPKLLIYYDDLRPSGVPDRFSGSKSGTSASLAISGLRSEDEADYYCSAWDDSLSGVVFGGGTKLTVLGQPKAAPSVTLFPPSSEELQANKATLVCLISDFYPGAVTVAWKADSSPVKAGVETTTPSKQSNNKYAASSYLSLTPEQWKSHRSYSCQVTHEGSTVEKTVAPTECS
notes: hIgG1, Lambda (HS variant)
B4: TPP-30002 (antibody, human IgG1, lambda)
heavy: QVQLVESGGGVVQPGRSLRLSCAASGFTFSHYDMHWVRQAPGKGLEWVAVISYEGSNKFYADSVKGRFTISRDNSKNTLYLQMNSLRAEDTAVYYCARTPGFHFDYWGQGTLVTVSSASTKGPSVFPLAPSSKSTSGGTAALGCLVKDYFPEPVTVSWNSGALTSGVHTFPAVLQSSGLYSLSSVVTVPSSSLGTQTYICNVNHKPSNTKVDKKVEPKSCDKTHTCPPCPAPPVAGPSVFLFPPKPKDTLMISRTPEVTCVVVGVSHEDPEVKFNWYVDGVEVHNAKTKPREEQYNSTYRVVSVLTVLHQDWLNGKEYKCKVSNKQLPSPIEKTISKAKGQPREPQVYTLPPSRDELTKNQVSLTCLVKGFYPSDIAVEWESNGQPENNYKTTPPVLDSDGSFFLYSKLTVDKSRWQQGNVFSCSVMHEALHNHYTQKSLSLSPGK
light: QSVLTQPPSASGTPGQRVTISCSGSSSNIGSNYVNWYQQLPGTAPKLLIYYDDLRPSGVPDRFSGSKSGTSASLAISGLRSEDEADYYCSAWDDSLSGVVFGGGTKLTVLGQPKAAPSVTLFPPSSEELQANKATLVCLISDFYPGAVTVAWKADSSPVKAGVETTTPSKQSNNKYAASSYLSLTPEQWKSHRSYSCQVTHEGSTVEKTVAPTECS
notes: hIgG1, Lambda (HS variant)

Experiments:
[1] = target: T1, murine IL-11 (mouse, UniProt P47873 22-199); assay: cell-based or functional assay
T1 sequence: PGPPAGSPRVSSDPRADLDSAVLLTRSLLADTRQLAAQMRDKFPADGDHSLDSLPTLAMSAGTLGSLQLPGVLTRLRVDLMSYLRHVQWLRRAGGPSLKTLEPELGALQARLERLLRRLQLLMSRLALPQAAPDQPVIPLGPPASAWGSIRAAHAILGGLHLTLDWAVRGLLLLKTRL

[2] = target: T2, human IL-11 (human, UniProt P20809 22-199); assay: cell-based or functional assay
T2 sequence: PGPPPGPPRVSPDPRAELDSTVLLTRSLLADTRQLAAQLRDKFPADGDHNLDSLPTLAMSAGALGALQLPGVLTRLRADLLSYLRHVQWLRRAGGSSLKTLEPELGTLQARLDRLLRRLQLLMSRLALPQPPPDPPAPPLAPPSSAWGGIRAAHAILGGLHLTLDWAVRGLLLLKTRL

[3] = target: T1, murine IL-11; assay: SPR, antibody captured, IL-11 as analyte
[4] = target: T3, rat IL-11 (rat, UniProt Q99MF5 22-199); assay: SPR, antibody captured, IL-11 as analyte
T3 construct: Invigate, e.g. lot #C301019-19; also called rIL11
T3 sequence: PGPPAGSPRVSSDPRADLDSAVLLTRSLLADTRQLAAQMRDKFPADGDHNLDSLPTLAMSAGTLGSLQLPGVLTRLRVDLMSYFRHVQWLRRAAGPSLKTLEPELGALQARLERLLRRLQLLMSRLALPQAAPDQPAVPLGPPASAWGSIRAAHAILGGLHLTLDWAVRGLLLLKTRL

[5] = target: T4, cynomolgus IL-11 (cynomolgus, UniProt P20808 22-199); assay: SPR, antibody captured, IL-11 as analyte
T4 construct: Invigate, lot #C290621-19; also called cIL11; cynoL-11
T4 sequence: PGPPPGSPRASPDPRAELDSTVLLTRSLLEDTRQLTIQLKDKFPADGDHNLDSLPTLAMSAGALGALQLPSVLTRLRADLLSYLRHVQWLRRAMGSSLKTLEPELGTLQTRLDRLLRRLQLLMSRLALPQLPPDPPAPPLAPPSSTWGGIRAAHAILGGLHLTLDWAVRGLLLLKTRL

[6] = target: T2, human IL-11; assay: SPR, antibody captured, IL-11 as analyte
[7] = target: T1, murine IL-11; assay: Di-complex ELISA, competitor murine IL11RA-Fc on coated IL-11
[8] = target: T2, human IL-11; assay: as above
[9] = target: T1, murine IL-11; assay: SPR 37 C, antibody captured, IL-11 as analyte
Protocol: (§1) To assess the binding kinetics and affinity of anti-IL-11 antibodies as well as their species cross-reactivity profile, binding assays were conducted using surface plasmon resonance (SPR). Binding assays were performed on a Biacore T200 instrument or on a Biacore 8K+ instrument (Cytiva) at 37° C. using assay buffer HBS EP+, 300 mM NaCl, 1 mg/ml BSA, 0.05% NaN3. Antibodies were captured either via anti-human Fc IgGs (“Human antibody capture kit”, Order No. BR100839, Cytiva) or via anti-mouse Fc IgGs (“Mouse antibody capture kit, Order No. BR100383, Cytiva) covalently amine coupled to a Series S CM5 sensor chip (Cytiva) depending on the isotype. The amine coupling was carried out according to the manufacturer's instructions using 1-ethyl-3-(3-dimethylaminopropyl) carbodiimide hydrochloride (EDC), N-hydroxysuccinimide (NHS) and ethanolamine HCl, pH 8.5 (“Amine Coupling Kit” BR-1000-50, Cytiva.). Human, mouse, cynomolgus or rat IL-11 was used as analyte at several dilutions within the concentration range from 0.05-200 nM. For binding assays with only one concentration 200 nM IL-11 was used. The sensor surface was regenerated with glycine pH 1.7 after each antigen injection. Obtained sensorgrams were double referenced (subtraction of reference flow cell signal and buffer injection) and were fitted to a 1:1 Langmuir binding model to derive kinetic data using the Biacore T200 Evaluation software or the Biacore Insight software. If no value is reported, there was either no binding or very low binding and multiphasic binding behavior. Values below 1E-12 were considered to be below the dynamic range of the instrument and set to <1E-12.

[10] = target: T3, rat IL-11; assay: SPR 37 C, antibody captured, IL-11 as analyte
Protocol: as §1

[11] = target: T4, cynomolgus IL-11; assay: SPR 37 C, antibody captured, IL-11 as analyte
Protocol: as §1

[12] = target: T2, human IL-11; assay: SPR 37 C, antibody captured, IL-11 as analyte
Protocol: as §1

[13] = target: T1, murine IL-11; assay: cell-based or functional assay; remark: listed apart in the source
[14] = target: T3, rat IL-11; assay: cell-based or functional assay
[15] = target: T4, cynomolgus IL-11; assay: cell-based or functional assay
[16] = target: T2, human IL-11; assay: cell-based or functional assay; remark: listed apart in the source

| Binder | RGA Efficacy (%) [1] [%] | RGA IC50 [1] [nM] | RGA Efficacy (%) [2] [%] | RGA IC50 [2] [nM] | Kd [3] [nM] | Kd [4] [nM] | Kd [5] [nM] | Kd [6] [nM] | Efficacy (%) [7] [%] | Efficacy (%) [8] [%] | Kd [9] [nM] | Kd [10] [nM] | Kd [11] [nM] | Kd [12] [nM] | RGA Efficacy (%) [13] [%] | RGA Efficacy (%) [14] [%] | RGA IC50 [14] [nM] | RGA Efficacy (%) [15] [%] | RGA Efficacy (%) [16] [%] | RGA IC50 [16] [nM] | other results |
| --- | --- | --- | --- | --- | --- | --- | --- | --- | --- | --- | --- | --- | --- | --- | --- | --- | --- | --- | --- | --- | --- |
| B1 | 89 | 0.24 | 50.9 | 16 | 0.62 | 0.33 | 1.8 | 2.2 |  |  |  |  |  |  |  |  |  |  |  |  |  |
| B2 | 97.9 | 0.12 | 88.9 | 0.64 | 0.3 | 0.15 | 0.31 | 0.27 |  |  |  |  |  |  |  |  |  |  |  |  |  |
| B3 |  |  |  |  |  |  |  |  | 3.5 | 0 | 0.039 | 0.21 | 32 | 0.018 | 97.9 | 100 | 1.4 | 64.6 | 97.8 | 1.8 | RGA IC50 [13]: 0.66 nM |
| B4 |  |  |  |  |  |  |  |  | -3.3 | 3.5 | 0.013 | 0.18 | 10 | 0.0074 | 97.2 | 99.1 | 1.1 | 72.8 | 96.5 | 1.2 |  |

Where two headings read alike, the source gives them in different places.
